Measured values reported in PubChem BioAssay (NCI).
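Assay format: 96-well plates, 48-hour exposure. The concentration for full growth arrest is given as TGI.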

Tested on: NCI-H322M lung
Assay: NCI-60 cell line screen, 48 h

For `CC(=O)OCC1=C(C)C[C@H]([C@@H](COC(C)=O)C2CCC3C4C[C@H]5O[C@]56CC=CC(=O)[C@]6(C)C4CC[C@@]32C)OC1=O` (stereo partly specified), the TGI was 7.7 µM.
